The record followed here is article PMC9911399, “Two distinct binding modes provide the RNA-binding protein RbFox with extraordinary sequence specificity”.

Numbering of substitutions follows the chain as printed; changes in the protein carry UniProt numbers. The list shows a part of the results.

T1: RBFOX1 RRM RbFoxmut (Fox-RRM*) (Homo sapiens, UniProt Q9NWB1 109-208, R118D;E147R;N151S;E152T)
T1 sequence: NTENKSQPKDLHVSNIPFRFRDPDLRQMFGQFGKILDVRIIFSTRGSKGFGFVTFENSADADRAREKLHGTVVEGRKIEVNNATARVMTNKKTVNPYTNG

B1: AGGUAGG (DNA:RNA)
RNA: GGGAGACCGGAAUUCAGAUUGUCCAGGUAGGUUAAAUCCCGUCGUAGCCACCA
DNA 1: CAATCTGAATTCCGGTCTCCC
DNA 2: TGGTGGCTACGACGGGATT
B2: CGGGCUC (DNA:RNA)
RNA: B1 RNA with A25C, U28G, A29C, G30U, G31C
DNA 1: CAATCTGAATTCCGGTCTCCC
DNA 2: TGGTGGCTACGACGGGATT
B3: UUAAAGU (DNA:RNA)
RNA: B1 RNA with A25U, G26U, G27A, U28A, G31U
DNA 1: CAATCTGAATTCCGGTCTCCC
DNA 2: TGGTGGCTACGACGGGATT
B4: ACCGCAC (DNA:RNA)
RNA: B1 RNA with G26C, G27C, U28G, A29C, G30A, G31C
DNA 1: CAATCTGAATTCCGGTCTCCC
DNA 2: TGGTGGCTACGACGGGATT
B5: GUGCACA (DNA:RNA)
RNA: B1 RNA with A25G, G26U, U28C, G30C, G31A
DNA 1: CAATCTGAATTCCGGTCTCCC
DNA 2: TGGTGGCTACGACGGGATT
B6: GAAGCAG (DNA:RNA)
RNA: B1 RNA with A25G, G26A, G27A, U28G, A29C, G30A
DNA 1: CAATCTGAATTCCGGTCTCCC
DNA 2: TGGTGGCTACGACGGGATT
B7: GCGUUAU (DNA:RNA)
RNA: B1 RNA with A25G, G26C, A29U, G30A, G31U
DNA 1: CAATCTGAATTCCGGTCTCCC
DNA 2: TGGTGGCTACGACGGGATT
B8: GUCCCUU (DNA:RNA)
RNA: GGGAGACCGGAAUUCAGAUUGUCCGUCCCUUUUAAAUCCCGUCGUAGCCACCA
DNA 1: CAATCTGAATTCCGGTCTCCC
DNA 2: TGGTGGCTACGACGGGATT
B9: CAGCUUC (DNA:RNA)
RNA: B8 RNA with G25C, U26A, C27G, C29U, U31C
DNA 1: CAATCTGAATTCCGGTCTCCC
DNA 2: TGGTGGCTACGACGGGATT
B10: GACACCU (DNA:RNA)
RNA: B8 RNA with U26A, C28A, U30C
DNA 1: CAATCTGAATTCCGGTCTCCC
DNA 2: TGGTGGCTACGACGGGATT
B11: GGGGGCG (DNA:RNA)
RNA: B1 RNA with A25G, U28G, A29G, G30C
DNA 1: CAATCTGAATTCCGGTCTCCC
DNA 2: TGGTGGCTACGACGGGATT
B12: UGCACCC (DNA:RNA)
RNA: B8 RNA with G25U, U26G, C28A, U30C, U31C
DNA 1: CAATCTGAATTCCGGTCTCCC
DNA 2: TGGTGGCTACGACGGGATT
B13: CUUGUGU (DNA:RNA)
RNA: B8 RNA with G25C, C27U, C28G, C29U, U30G
DNA 1: CAATCTGAATTCCGGTCTCCC
DNA 2: TGGTGGCTACGACGGGATT
B14: GCCGCCA (DNA:RNA)
RNA: B8 RNA with U26C, C28G, U30C, U31A
DNA 1: CAATCTGAATTCCGGTCTCCC
DNA 2: TGGTGGCTACGACGGGATT
B15: GUGUGAU (DNA:RNA)
RNA: B8 RNA with C27G, C28U, C29G, U30A
DNA 1: CAATCTGAATTCCGGTCTCCC
DNA 2: TGGTGGCTACGACGGGATT
B16: UUACCGG (DNA:RNA)
RNA: B8 RNA with G25U, C27A, U30G, U31G
DNA 1: CAATCTGAATTCCGGTCTCCC
DNA 2: TGGTGGCTACGACGGGATT
B17: UUAACGC (DNA:RNA)
RNA: B8 RNA with G25U, C27A, C28A, U30G, U31C
DNA 1: CAATCTGAATTCCGGTCTCCC
DNA 2: TGGTGGCTACGACGGGATT
B18: CUAAGAA (DNA:RNA)
RNA: B8 RNA with G25C, C27A, C28A, C29G, U30A, U31A
DNA 1: CAATCTGAATTCCGGTCTCCC
DNA 2: TGGTGGCTACGACGGGATT
B19: UAUCUAC (DNA:RNA)
RNA: B8 RNA with G25U, U26A, C27U, C29U, U30A, U31C
DNA 1: CAATCTGAATTCCGGTCTCCC
DNA 2: TGGTGGCTACGACGGGATT
B20: GGUUCUG (DNA:RNA)
RNA: B1 RNA with A25G, G27U, A29C, G30U
DNA 1: CAATCTGAATTCCGGTCTCCC
DNA 2: TGGTGGCTACGACGGGATT
B21: GGGUAUC (DNA:RNA)
RNA: B1 RNA with A25G, G30U, G31C
DNA 1: CAATCTGAATTCCGGTCTCCC
DNA 2: TGGTGGCTACGACGGGATT
B22: AUAACAA (DNA:RNA)
RNA: B8 RNA with G25A, C27A, C28A, U30A, U31A
DNA 1: CAATCTGAATTCCGGTCTCCC
DNA 2: TGGTGGCTACGACGGGATT
B23: AAAUAAU (DNA:RNA)
RNA: B1 RNA with G26A, G27A, G30A, G31U
DNA 1: CAATCTGAATTCCGGTCTCCC
DNA 2: TGGTGGCTACGACGGGATT
B24: UCGCGAA (DNA:RNA)
RNA: B1 RNA with A25U, G26C, U28C, A29G, G30A, G31A
DNA 1: CAATCTGAATTCCGGTCTCCC
DNA 2: TGGTGGCTACGACGGGATT
B25: UUGGAGU (DNA:RNA)
RNA: B1 RNA with A25U, G26U, U28G, G31U
DNA 1: CAATCTGAATTCCGGTCTCCC
DNA 2: TGGTGGCTACGACGGGATT
B26: AAACUUG (DNA:RNA)
RNA: B1 RNA with G26A, G27A, U28C, A29U, G30U
DNA 1: CAATCTGAATTCCGGTCTCCC
DNA 2: TGGTGGCTACGACGGGATT
B27: CUUUUUU (DNA:RNA)
RNA: B8 RNA with G25C, C27U, C28U, C29U
DNA 1: CAATCTGAATTCCGGTCTCCC
DNA 2: TGGTGGCTACGACGGGATT
B28: AUCAUGA (DNA:RNA)
RNA: B1 RNA with G26U, G27C, U28A, A29U, G31A
DNA 1: CAATCTGAATTCCGGTCTCCC
DNA 2: TGGTGGCTACGACGGGATT
B29: UGUGGGA (DNA:RNA)
RNA: B1 RNA with A25U, G27U, U28G, A29G, G31A
DNA 1: CAATCTGAATTCCGGTCTCCC
DNA 2: TGGTGGCTACGACGGGATT
B30: UCCCCGC (DNA:RNA)
RNA: B8 RNA with G25U, U26C, U30G, U31C
DNA 1: CAATCTGAATTCCGGTCTCCC
DNA 2: TGGTGGCTACGACGGGATT
B31: GGAUCUG (DNA:RNA)
RNA: B1 RNA with A25G, G27A, A29C, G30U
DNA 1: CAATCTGAATTCCGGTCTCCC
DNA 2: TGGTGGCTACGACGGGATT

In this experiment the target is T1, RBFOX1 RRM RbFoxmut (Fox-RRM*). In words: EMSA; HiTS-Eq, 1 nM pool, 10 min; buffer printed only for the single-RNA assays: 10 mM Tris pH 7.5, 150 mM NaCl, 3.4 mM EDTA, 0.001% NP-40, 30 C. The following applies: tags: His6 N-terminal (pET28a); label: 5' 32P. In outline:
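Purified wild-type or mutant RbFox RRM at increasing concentrations was equilibrated with 1 nM of 5′-radiolabelled RNA carrying 7 randomized nucleotides for 10 min in 50 µL. Unbound RNA was separated by 8% native PAGE and sequenced. Relative association constants came from read-count changes of each RNA species compared with the control reaction, normalised to the cognate motif.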
For B1, the binding signal is 0.112 KA relative to UGCAUGU.
Regarding B2, the binding signal is 0.126 KA relative to UGCAUGU.
Take B3: the binding signal is 0.0977 KA relative to UGCAUGU.
As to B4, the binding signal is 0.0716 KA relative to UGCAUGU.
Turning to B5, the binding signal is 0.111 KA relative to UGCAUGU.
In the case of B6, the binding signal is 0.075 KA relative to UGCAUGU.
In the case of B7 it was 0.0949 KA relative to UGCAUGU; in that of B8, 0.0619 KA relative to UGCAUGU; in that of B9, 0.0808 KA relative to UGCAUGU.
On to B10, for which the binding signal is 0.0627 KA relative to UGCAUGU.
The result for B11 reads 0.162 KA relative to UGCAUGU; that for B12, 0.127 KA relative to UGCAUGU.
Turning to B13, the binding signal is 0.195 KA relative to UGCAUGU.
As to B14, the binding signal is 0.0838 KA relative to UGCAUGU.
On to B15, for which the binding signal was 0.127 KA relative to UGCAUGU.
Consider B16, for which the binding signal is 0.0711 KA relative to UGCAUGU.
As for B17, the binding signal was 0.0819 KA relative to UGCAUGU.
The result for B18 reads 0.0809 KA relative to UGCAUGU.
B19: the binding signal was 0.0777 KA relative to UGCAUGU.
The result for B20 reads 0.208 KA relative to UGCAUGU; that for B21, 0.409 KA relative to UGCAUGU; that for B22, 0.0696 KA relative to UGCAUGU.
Turning to B23, the binding signal was 0.108 KA relative to UGCAUGU.
Regarding B24, the binding signal is 0.105 KA relative to UGCAUGU.
The result for B25 reads 0.144 KA relative to UGCAUGU.
In the case of B26 it was 0.0923 KA relative to UGCAUGU.
B27: the binding signal is 0.0683 KA relative to UGCAUGU.
With B28, the binding signal is 0.127 KA relative to UGCAUGU.
Turning to B29, the binding signal is 0.0829 KA relative to UGCAUGU.
As for B30, the binding signal was 0.0928 KA relative to UGCAUGU.
Turning to B31, the binding signal was 0.14 KA relative to UGCAUGU.
